Laboratory results taken from PubChem BioAssay AID686978 (National Center for Advancing Translational Sciences (NCATS), 2013).
Where “and” joins values, the source holds several entries; their conditions need not be identical. Equal entries are not always repeated. Among all 420,000 compounds or so, about 64,000 (15%) were called active. The shares of active, inactive and inconclusive entries below differ from those in the screen. Calls come from the whole dose curve; as a rule, active = well fitted inhibition curve with a large enough effect; inconclusive = small, poorly fitted or top-dose-only effect; inactive = flat fitted curve, though single readings scatter. A potency beside an inconclusive call is a rough fit, not a confirmed value.

Experiment: qHTS for Inhibitors of human tyrosyl-DNA phosphodiesterase 1 (TDP1): qHTS in cells in absence of CPT; note: nearly all actives have a fitted effect of over 55% in size
Settings: DT40 Tdp1-/- hTDP1 cells, no CPT, ATP luminescence, 48 h; series mostly up to 46.2 µM
Summary of the method: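 Growth kinetics read by CellTiter-Glo luminescence after ≥48 hr at 37 °C. Cells: DT40 Tdp1-/- stably carrying human TDP1, 400 per well, compound exposure in the absence of CPT (DMSO vehicle).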
Potency is the fitted concentration of half-maximal effect; tags give direction and shape of the fitted curve.

SMILES	Potency
Cc1ccc(NC(=O)COC(=O)CCC(=O)c2cccs2)cc1	inactive
CCOc1ccc(S(=O)(=O)N2CCCCC2)c2ccccc12	active: 20.6 µM
COc1ccc(-c2nnc3sc(CCN4C(=O)c5ccccc5C4=O)nn23)cc1	inconclusive: 14.6 µM [inhibitor, single point]
Cc1cc(C)c(S(=O)(=O)N2CCN(C(=O)N(C)C)CC2)c(C)c1	inconclusive: 8.2 µM [inhibitor, partial curve]
COc1ccc(C(CC(=O)c2ccc(O)cc2)S(=O)(=O)c2ccc(C)cc2)cc1 (centres undefined)	inconclusive: 13 µM [inhibitor, partial curve, poor fit]
COc1ccc2cc3cc(C(=O)NCCN4CCN(Cc5ccccc5)CC4)oc3nc2c1	active: 20.6 µM
O=C(CNC1=NCCS1)c1c[nH]c2ccccc12	inconclusive: 8.91 µM [inhibitor, partial curve]
COCCNc1nc2c(c(=O)n(Cc3cccc(Cl)c3)c(=O)n2C)n1C	inactive and inconclusive: 16.4 µM [inhibitor, partial curve]
CCOC(=O)C1CCN(C(=O)COC(=O)C23CC4CC(CC(C4)C2)C3)CC1	inconclusive: 29.1 µM [inhibitor, single point]
CC(C)(C)NC(=O)C[C@H]1C[C@H](C(=O)N2CCCCC2)[C@@]2(C)c3[nH]c4ccc(Cl)cc4c3CCN2C1=O	active: 20.6 µM
Brc1ccccc1OCCN1CCCC1	inactive
COC(=O)c1c(NC(=O)c2ccc(OC(C)C)cc2)sc2c1CC(C)(C)NC2(C)C	inconclusive: 18.4 µM [inhibitor, single point]
c1ccc2nc(-c3ccc4c(c3)OCO4)ccc2c1	inconclusive: 29.1 µM [inhibitor, single point]
COc1ccc(-c2cc(C(=O)Nc3ccc(S(N)(=O)=O)cc3)c3ccccc3n2)cc1OC	inconclusive: 18.4 µM [inhibitor, partial curve]
CCC(=O)Nc1ccc(NC(=O)c2cc3ccccc3o2)c(OC)c1	active: 10.3 µM
CC12CC(NC(=O)N1c1cccc(C(=O)N3CCN(c4ccccc4)CC3)c1)c1ccccc1O2 (centres undefined)	inconclusive: 29.1 µM [inhibitor, single point]
Cc1ccc(C)c(C(O)c2ncc(-c3ccc(Cl)cc3)[nH]2)c1 (centres undefined)	inconclusive: 29.1 µM [inhibitor, single point]
COc1ccc(OCC(=O)Nc2c(C(=O)N3CCN(c4ccccc4)CC3)oc3ccccc23)cc1	inactive
COc1ccc(Cl)cc1NC(=S)NN1CCOCC1	inactive
